At least one read-out could not be matched to a standard name with certainty.
Columns and labels:
[1] = system: Puccinia recondita tritici; assay: Leaf Rust of Wheat (PUCCRT), foliar spray, percent disease control; type: in vivo
Experimental: The activity of the compounds as effective fungicides was determined by applying the compounds to plants and observing control of fungal disease. The compounds were formulated at 200 ppm in 10 vol. % acetone plus 90 vol. % Triton X water (deionized water 99.99 wt %+0.01 wt % Triton X100), giving a “formulated test compound.” In a few cases, compounds were formulated at 75 or 8.3 ppm rather than 200 ppm in 10 vol. % acetone plus 90 vol. % Triton X water (deionized water 99.99 wt. %+0.01 wt. % Triton X100), giving a “formulated test compound.” Formulated test compounds were applied to plants using a turn table sprayer fitted with two opposing air atomization nozzles which delivered approximately 1500 L/ha of spray volume. All plants were inoculated with spores of the fungus the day after treatment, then incubated in an environment conducive to disease development. Disease severity was evaluated 4 to 15 days later, depending on the disease and the speed of disease development. The following experiments were performed in the laboratory to determine the fungicidal efficacy of the compounds of the invention. […] Each pot contained 3-8 seedlings. These plants were sprayed until wet with the formulated test compounds. On the following day, the leaves were inoculated with an aqueous spore suspension of Puccinia recondita tritici and the plants were kept in high humidity overnight to permit spores to germinate and infect the leaf. The plants were then transferred to a greenhouse until disease developed on untreated control plants. […] The effectiveness of the test compounds at controlling disease when sprayed on leaves was determined by assessing the severity of disease on treated plants, then converting the severity to percent control based on the level of disease on untreated, inoculated plants. Data are the level (in percent) at which the given disease was controlled when the given compound was applied to the foliage of the plants at 200 ppm. In a few cases (noted in the table) the compound was applied to the plants at 75 ppm or 8.3 ppm.

[2] = system: Leptosphaeria nodorum; assay: Glume Blotch of Wheat (LEPTNO), foliar spray, percent disease control; type: in vivo; details: in vivo
Experimental: The activity of the compounds as effective fungicides was determined by applying the compounds to plants and observing control of fungal disease. The compounds were formulated at 200 ppm in 10 vol. % acetone plus 90 vol. % Triton X water (deionized water 99.99 wt %+0.01 wt % Triton X100), giving a “formulated test compound.” In a few cases, compounds were formulated at 75 or 8.3 ppm rather than 200 ppm in 10 vol. % acetone plus 90 vol. % Triton X water (deionized water 99.99 wt. %+0.01 wt. % Triton X100), giving a “formulated test compound.” Formulated test compounds were applied to plants using a turn table sprayer fitted with two opposing air atomization nozzles which delivered approximately 1500 L/ha of spray volume. All plants were inoculated with spores of the fungus the day after treatment, then incubated in an environment conducive to disease development. Disease severity was evaluated 4 to 15 days later, depending on the disease and the speed of disease development. The following experiments were performed in the laboratory to determine the fungicidal efficacy of the compounds of the invention. […] Each pot contained 3-20 seedlings. These plants were sprayed until wet with the formulated test compound. On the following day, the leaves were inoculated with an aqueous spore suspension of Leptosphaeria nodorum and the plants were kept in high humidity (one day in a dark dew chamber followed by four days in a lighted dew chamber) to permit spores to germinate and infect the leaf. The plants were then transferred to a greenhouse until disease developed on untreated control plants. […] The effectiveness of the test compounds at controlling disease when sprayed on leaves was determined by assessing the severity of disease on treated plants, then converting the severity to percent control based on the level of disease on untreated, inoculated plants. Data are the level (in percent) at which the given disease was controlled when the given compound was applied to the foliage of the plants at 200 ppm. In a few cases (noted in the table) the compound was applied to the plants at 75 ppm or 8.3 ppm.

SMILES | PUCCRT percent control ([1]; in vivo) | LEPTNO percent control [2] | PUCCRT percent control ([1]; foliar spray)
c1ccc(COc2ccc(CCNc3ncnc4nccnc34)cc2)cc1 [Compound 1, [2-(4-Benzyloxyphenyl)-ethyl]-pteridin-4-yl-amine] | *** (*** = 80-100 percent control) | *** (*** = 80-100 percent control) | 
FC(F)(F)c1ccnc(Oc2ccc(CCNc3ncnc4nccnc34)cc2)c1 [Compound 2, pteridin-4-yl-{2-[4-(4-trifluoromethylpyridin-2-yloxy)-phenyl]-ethyl}-amine] | *** (*** = 80-100 percent control) | *** (*** = 80-100 percent control) | 
FC(F)(F)c1ccnc(Oc2ccc(CCNc3ncnc4nccnc34)cc2)n1 [Compound 3] | *** (*** = 80-100 percent control) | ** (** = 50-79 percent control) | 
Oc1ccc(CCNc2ncnc3nccnc23)cc1 [Compound 4, 4-[2-(Pteridin-4-ylamino)-ethyl]-phenol] | * (* = 0-49 percent control) | * (* = 0-49 percent control) | 
FC(F)(F)c1ccc(Oc2ccc(CCNc3ncnc4nccnc34)cc2)nc1 [Compound 5] | *** (*** = 80-100 percent control) | *** (*** = 80-100 percent control) | 
FC(F)(F)c1cccc(Oc2ccc(CCNc3ncnc4nccnc34)cc2)n1 [Compound 6] | *** (*** = 80-100 percent control) | *** (*** = 80-100 percent control) | 
Fc1cccc(Oc2ccc(CCNc3ncnc4nccnc34)cc2)n1 [Compound 7, {2-[4-(6-Fluoropyridin-2-yloxy)-phenyl]-ethyl}-pteridin-4-ylamine] | *** (*** = 80-100 percent control) | * (* = 0-49 percent control) | 
N#Cc1ccnc(Oc2ccc(CCNc3ncnc4nccnc34)cc2)c1 [Compound 8] | *** (*** = 80-100 percent control) | * (* = 0-49 percent control) | 
CC(Nc1ncnc2nccnc12)c1ccccc1 (centres unmarked) [Compound 9] | *** (*** = 80-100 percent control) | * (* = 0-49 percent control) | 
COc1cccc(Oc2ccc(CCNc3ncnc4nccnc34)cc2)n1 [Compound 10, {2-[4-(6-Methoxypyridin-2-yloxy)-phenyl]-ethyl}-pteridin-4-yl-amine] | *** (*** = 80-100 percent control) | ** (** = 50-79 percent control) | 
FC(F)(F)COc1cccc(Oc2ccc(CCNc3ncnc4nccnc34)cc2)n1 [Compound 11, Pteridin-4-yl-(2-{4-[6-(2,2,2-trifluoroethoxy)-pyridin-2-yloxy]-phenyl}-ethyl)-amine] | *** (*** = 80-100 percent control) | ** (** = 50-79 percent control) | 
CCOc1cccc(Oc2ccc(CCNc3ncnc4nccnc34)cc2)n1 [Compound 12, {2-[4-(6-Ethoxypyridin-2-yloxy)-phenyl]-ethyl}-pteridin-4-yl-amine] | *** (*** = 80-100 percent control) | *** (*** = 80-100 percent control) | 
N#Cc1cccc(Oc2ccc(CCNc3ncnc4nccnc34)cc2)n1 [Compound 13] | *** (*** = 80-100 percent control) | * (* = 0-49 percent control) | 
N#Cc1ccc(Oc2ccc(CCNc3ncnc4nccnc34)cc2)nc1 [Compound 14] | *** (*** = 80-100 percent control) | * (* = 0-49 percent control) | 
c1cnc(Oc2ccc(CCNc3ncnc4nccnc34)cc2)nc1 [Compound 15] | *** (*** = 80-100 percent control) | * (* = 0-49 percent control) | 
COc1ccnc(Oc2ccc(CCNc3ncnc4nccnc34)cc2)n1 [Compound 16] | *** (*** = 80-100 percent control) | * (* = 0-49 percent control) | 
COc1ccc(C(C)Nc2ncnc3nccnc23)cc1 (centres unmarked) [Compound 17] | *** (*** = 80-100 percent control) | ** (** = 50-79 percent control) | 

SMILES | PUCCRT percent control ([1]; in vivo) | LEPTNO percent control [2] | PUCCRT percent control ([1]; foliar spray)
N#Cc1nccnc1Oc1ccc(CCNc2ncnc3nccnc23)cc1 [Compound 18] | *** (*** = 80-100 percent control) | * (* = 0-49 percent control) | 
COc1ccc(C(C)Nc2nc(C)nc3nccnc23)cc1 (centres unmarked) [Compound 19, [1-(4-Methoxyphenyl)ethyl]-2-methylpteridin-4-yl-amine] | * (* = 0-49 percent control) | * (* = 0-49 percent control) | 
Oc1cccc(CCNc2ncnc3nccnc23)c1 [Compound 20] | * (* = 0-49 percent control) | * (* = 0-49 percent control) | 
COc1nsc(Oc2ccc(CCNc3ncnc4nccnc34)cc2)n1 [Compound 21] | *** (*** = 80-100 percent control) | ** (** = 50-79 percent control) | 
c1ccc(-c2nsc(Oc3ccc(CCNc4ncnc5nccnc45)cc3)n2)cc1 [Compound 22] | *** (*** = 80-100 percent control) | ** (** = 50-79 percent control) | 
c1cc(-c2nnc(Oc3ccc(CCNc4ncnc5nccnc45)cc3)s2)ccn1 [Compound 23] | *** (*** = 80-100 percent control) | * (* = 0-49 percent control) | 
Clc1nccc(Oc2ccc(CCNc3ncnc4nccnc34)cc2)n1 [Compound 24] | *** (*** = 80-100 percent control) | * (* = 0-49 percent control) | 
FC(F)(F)COc1ccnc(Oc2ccc(CCNc3ncnc4nccnc34)cc2)n1 [Compound 25] | *** (*** = 80-100 percent control) | *** (*** = 80-100 percent control) | 
CC(C)Cc1nnc(Oc2ccc(CCNc3ncnc4nccnc34)cc2)s1 [Compound 26] | *** (*** = 80-100 percent control) | * (* = 0-49 percent control) | 
c1ccc(OCc2nnc(Oc3ccc(CCNc4ncnc5nccnc45)cc3)s2)cc1 [Compound 27] | *** (*** = 80-100 percent control) | * (* = 0-49 percent control) | 
c1cnc(Oc2ccc(CCNc3ncnc4nccnc34)cc2)cn1 [Compound 28] | *** (*** = 80-100 percent control) | * (* = 0-49 percent control) | 
[O-][n+]1ccnc(Oc2ccc(CCNc3ncnc4nccnc34)cc2)c1 [Compound 29] | ** (** = 50-79 percent control) | * (* = 0-49 percent control) | 
O=C(c1ccc(Oc2ccc(CCNc3ncnc4nccnc34)cc2)nc1)C1CC1 [Compound 30] | *** (*** = 80-100 percent control) | *** (*** = 80-100 percent control) | 
Brc1nsc(Oc2ccc(CCNc3ncnc4nccnc34)cc2)n1 [Compound 33] | *** (*** = 80-100 percent control) | ** (** = 50-79 percent control) | 
FC(F)(F)c1ccc(Oc2ccc(CCNc3ncnc4nccnc34)cc2)nn1 [Compound 34] | *** (*** = 80-100 percent control) | ** (** = 50-79 percent control) | 
CC(C)(C)OC(=O)N(CCc1ccc(O)cc1)c1ncnc2nccnc12 [Compound 217, [2-(4-Hydroxyphenyl)-ethyl]-pteridin-4-yl-carbamic acid tert-butyl Ester] |  |  | * (* = 0-49 percent control)
